From PubChem BioAssay AID1508624 (National Center for Advancing Translational Sciences (NCATS), 2021)
In all, about 48,000 compounds went through this assay and about 120 (0.25%) were called active. Roughly 4% stayed inconclusive and do not appear here. The call rests on the fitted dose curve; in most records, active means well fitted activation curve with a large enough effect; inconclusive means small, poorly fitted or top-dose-only effect, or another doubt; inactive means no such curve, though single readings can be large or run the other way. The list shows a part of the results.

experiment: Primary qHTS for Identification of Small Molecule Activators of Huntingtin-Antisense Promoter Activity; conditions: HEK293 HTT-AS promoter firefly luciferase reporter (activity 0% = vehicle and -100% = no light), 24 h; series mostly up to 57.5 µM; activity change, positive = activation: at the top concentration; further: nearly all actives have a fitted effect of over 55% in size
Method in brief: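 HEK293 cells carrying firefly luciferase reporters were seeded at 2,500 per well in Opti-MEM and cultured for 24 h. They were then treated with compounds at up to 57.5 uM final for 24 h at 37 degrees C before Dual-Glo luminescence readout.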

Activity change, positive = activation, inactive:
CCc1ccc(NC(=O)Cn2nnc(C(=O)NCc3ccc(C)cc3)c2N)cc1 -8.53%
CCc1ccc(OCc2nc(-c3ccc(OC)c(OC)c3)no2)c(Br)c1 -14%
COc1cc(NC(=O)CCc2nc3cccnc3n2Cc2cccs2)cc(OC)c1OC -29.5%
CC1(C(=O)NC2CCCCC2)Cc2ccccc2C(=O)N1Cc1ccccc1Cl (centres undefined) -21.3%
O=C(CCc1nc2cccnc2n1-c1ccccc1)Nc1ccc(Cl)c(Cl)c1 -29.2%
CN(C)c1ccc(C2C=C(c3ccccc3)Nc3nnnn32)cc1 (centres undefined) 13.9%
CC(=O)c1ccc(N2C(=O)N(Cc3ccccc3C#N)c3ccccc3S2(=O)=O)cc1 -14.6%
CCOc1ccc(C(=O)NCC(c2ccc3c(c2)OCO3)N2CCOCC2)cc1 (centres undefined) -15.3%
COc1ccc(CNC(=O)CCNS(=O)(=O)c2cccc3nsnc23)cc1 -4.72%
CCOc1ccccc1CNC(=O)c1ccc(NC(=O)N2CCSc3ncccc32)cc1 -25.5%
COc1ccc2oc(=O)c(-c3cn4c(n3)sc3cc(OC)ccc34)cc2c1 1.07%
COc1ccc(OC)c(CNC(=O)Cn2nc(C)c3nn(-c4ccc(Cl)cc4)c(C)c3c2=O)c1 -27.3%
COc1ccc(/C=C/C(=O)Nc2nc3n(n2)C(c2ccccc2)C=C(c2ccc(Cl)cc2)N3)cc1 (centres undefined) -27.6%
COc1ccc2c(Sc3ccccc3)c(C(=O)NCCCN3CCCCC3)[nH]c2c1 -27.3%
CCc1ccccc1NC(=O)Nc1nnc(N(C)Cc2ccccc2)s1 -15.8%
C[C@@H](CN1CC(=O)NC(=O)C1)N1CC(=O)NC(=O)C1
Clc1ccc(N2CCN(c3ncnc4c3cnn4-c3ccccc3)CC2)cc1Cl -2.94%
COc1ccc(NC(=O)c2cc(S(=O)(=O)N3CCCCCC3)cn2C)cc1Cl -31.1%
COc1ccc(N(Cc2cccs2)C(=O)c2ccc(C(C)(C)C)cc2)cc1 -34.4%
COc1cc2[nH]c(=O)n(Cc3ccc(C(=O)N4CCN(c5cc(Cl)ccc5C)CC4)cc3)c(=O)c2cc1OC -16.6%
O=C(NCC(c1ccc2c(c1)OCO2)N1CCOCC1)C(=O)Nc1ccc(F)cc1F (centres undefined) 10.3%
O=C(Cn1cnc2c(oc3ccccc32)c1=O)Nc1ccc(OC(F)(F)F)cc1 1.79%
O=C(Nc1cccc(Cl)c1)N1CCC(CN2CCOCC2)CC1 13.5%
CC(=O)Nc1ccc(CC(=O)O)cc1 -6.9%
O=C(CN1C(=O)CC(c2ccco2)Sc2ccccc21)Nc1ccc(C(F)(F)F)cc1 (centres undefined) -36%
CC(C)(C)c1ccc(S(=O)(=O)c2cn(CC(=O)Nc3ccccc3)c3ccccc3c2=O)cc1 -22.9%
COc1ccccc1CNC(=O)Cc1csc2nc(-c3ccccc3)cn12 1.75%
Cc1ccc(CNC(=O)c2ccc3c(c2)N(Cc2ccccc2)C(=O)c2ccccc2S3(=O)=O)cc1 -9.41%
COC(=O)C1CCN(CC(=O)Nc2cc(C)c3c(=O)oc4ccccc4c3n2)CC1 -3.96%
O=C(Nc1nnc(S(=O)(=O)N2CCCc3ccccc32)s1)c1cccc(F)c1 -91.4%
COc1ccc(N(C(=O)c2cccc(C)c2)S(=O)(=O)c2ccc(C)cc2)cc1 -29.4%
O=C(CCC1N=C2c3ccccc3N=C(SCc3ccccc3F)N2C1=O)NCCc1ccccc1 (centres undefined) 5.38%
Cc1cc(C)c(NC(=O)Cn2ccn(-c3cccc(Cl)c3)c(=O)c2=O)c(C)c1 -15.4%
CCOC(=O)c1ccc(NC(=O)c2c(C)nn(-c3ccc(F)cc3)c2-n2cccc2)cc1 6.54%
Cc1ccc2c(c1)N(C(=O)C1CCN(S(=O)(=O)c3c(C)noc3/C=C/c3ccccc3F)CC1)CCO2 0.44%
CCn1c(SCc2ccc(F)cc2Cl)nnc1-c1nonc1NC(C)=O -22.3%
CCOc1ccc(CNC(=O)c2cccc(NC(=O)N3CCSc4ncccc43)c2)cc1 -16.4%
COc1ccc(CNC(=O)c2ccc3nc(CCc4ccccc4)oc3c2)cc1OC -55.8%
CCn1c(C(=O)N2CCC(C(=O)N3CCN(c4cc(C)ccc4C)CC3)CC2)cc2sccc21 -28.3%
C[C@H]1[C@H](NC(=O)/C(=N/OC(C)(C)C(=O)O)c2csc(N)n2)C(=O)N1S(=O)(=O)O (stereo in doubt) -3.85%
CC(=O)N1CCc2cc(S(=O)(=O)NC(CC(C)C)C(=O)Nc3ccc(C(C)C)cc3)ccc21 (centres undefined) -4.55%
CC(=O)N1c2ccc(S(=O)(=O)N3CCCCCC3)cc2CC1C(=O)NC(C)C (centres undefined) 1.88%
CCOC(=O)c1c(C)sc(-c2c(-c3ccc4c(c3)OCCO4)[nH]c3c2c(=O)n(C)c(=O)n3C)c1O -22%
Cc1cc(-c2ccc(C)c(S(=O)(=O)N3CCC(C)CC3)c2)on1 -40.6%
CCOC(=O)N1CCc2c(sc3c2c(=O)n(Cc2ccccc2)c(=O)n3Cc2cc(C)ccc2C)C1 -7.57%
CCCNC(=O)c1cnn2c(C)c(Cc3c(C)cc(C)cc3C)c(C)nc12 -47.4%
COc1ccc(NC(=O)c2cc3nc(-c4ccc(Cl)c(Cl)c4)cc(C(F)(F)F)n3n2)c(OC)c1 -8.61%
Cc1sc2ncn(CC(=O)Nc3ccc(F)cc3F)c(=O)c2c1S(=O)(=O)N1CCC(C)CC1 1.15%
CCOc1ccccc1NC(=O)N1CCC(n2c(C)nc3cccnc32)CC1 9.21%
COc1ccc(CNC(=O)CCc2cn(C)c3ccccc23)cc1 -12%
COc1ccc(C(=O)NC2CC(=O)N(c3ccc4c(c3)OCCO4)C2)cc1 (centres undefined) -14.2%
COc1cccc(N2CCN(S(=O)(=O)c3cn(C)c(C)n3)CC2)c1 -6.11%
CCC1Oc2ccc(C)cc2N(CC(=O)NCc2ccc(OC)cc2)C1=O (centres undefined) -15.9%
CCCCN1C(=O)c2[nH]nc(-c3ccccc3O)c2C1c1ccc(C(C)(C)C)cc1 (centres undefined) -60.8%
CCCn1c2ccccc2c2cnn(CC(=O)NCc3ccccc3Cl)c(=O)c21 -28.3%
CCN(CC)CCCNC(=O)Cc1ccc(NC(=O)N2CCCCc3ccccc32)cc1 -8.4%
O=c1oc2ccccc2cc1-c1nnc(Nc2ccc(Cl)cc2Cl)s1 4.55%
CC(=O)NC1CC(=O)N(c2ccc3c(c2)OCCO3)C1 (centres undefined) -1.31%
Cc1ccc(-c2nc3cc(Cl)ccc3o2)cc1NC(=O)c1cc([N+](=O)[O-])ccc1N1CCOCC1 6.85%
Cc1nc(-c2ccccc2)sc1-c1ccc(SCC(=O)Nc2cccc(C(F)(F)F)c2)nn1 -5.28%
CCC(=O)N1CCc2cc(Br)cc(S(=O)(=O)N3CCC(C(=O)Nc4ccccc4CC)CC3)c21 -3.02%
COc1cccc(C2CC(=O)Nc3cc4c(cc32)OCO4)c1OC(C)C (centres undefined) -36.9%
COc1cc(OC)c(NC(=O)C2CCN(C(=O)c3sc4nc[nH]c(=O)c4c3C)CC2)cc1Cl -22.9%
CC(C)Oc1ccc(CNC(=O)C2CCN(c3nc4ccccc4nc3C(F)(F)F)CC2)cc1 1.15%
CCc1nn(CCCC(=O)N2CCN(c3cc(Cl)ccc3C)CC2)c(=O)c2cc3occc3n12 -35.7%
COc1ccc(CC(=O)NC2CC(=O)N(c3cccc(F)c3)C2)cc1OC (centres undefined) -4.71%
CCOC(=O)c1c(C)n(S(=O)(=O)c2ccc(C)cc2C)c2ccc(NS(=O)(=O)c3ccc(C)cc3C)cc12 -32.2%
COc1ccccc1Nc1sc(C(=O)c2ccc3c(c2)OCO3)c(N)c1S(=O)(=O)c1ccccc1 -17%
Cc1cc(C)nc(NC(=NCCc2c[nH]c3ccc(Cl)cc23)NC(=O)c2ccccc2C)n1 -9.12%
COC(=O)C1=C(C)NC(=O)C1(NC(=O)c1cc(OC)c(OC)c(OC)c1)C(F)(F)F (centres undefined) -12%
CCOC(=O)c1c(NC(=O)c2ccc(S(=O)(=O)N3CCC(C)CC3)cc2)sc2c1CCN(CC)C2 -25.5%
C=Cc1ccc(Cn2nc(-c3ccc(C)cc3)ccc2=O)cc1 -14.7%
Cc1cccc(-n2cc(-c3ccccc3)c3c(NC4CCCC4)ncnc32)c1 -27.8%
O=C(NC1CCCCC1)c1ccc(CSc2nc3cccnc3n2Cc2ccc(F)cc2)cc1 -5.44%
CCOC(=O)c1c(S(=O)(=O)N2CCCC(C(=O)Nc3cc(C)ccn3)C2)c(C)n(C)c1C (centres undefined) 10.3%
O=C(c1cc(O)c(O)c(O)c1)c1ccc(O)c(O)c1O -0.416%
COc1ccc(OC)c(NC(=O)C2CCN(S(=O)(=O)c3ccc4c(c3)CCCC(=O)N4)CC2)c1 -14%
CCOC(=O)c1ccc(NC(=O)CCC(=O)N2Cc3ccccc3Oc3ncccc32)cc1 -22.5%
O=C1CC(c2nnc(Cc3ccc(F)cc3Cl)o2)CN1c1ccccc1 (centres undefined) 9.74%
O=C(CN1C(=O)COc2ccc(S(=O)(=O)N3CCCC3)cc21)N1CCN(c2ccc(F)cc2)CC1 -21.3%
Cc1cccc(-n2c(Cc3ccccc3)nnc2SCc2nc(-c3cccs3)no2)c1 -31.8%
O=C1c2[nH]nc(-c3ccccc3O)c2C(c2ccccc2F)N1Cc1cccnc1 (centres undefined) -10.7%
CCOC(=O)c1ccc(N2C(=O)c3n[nH]c(-c4ccco4)c3C2c2ccc(O)c(OCC)c2)cc1 (centres undefined) -57.7%
Cc1cccc(Nc2nnc(-c3ccc(C)c(S(=O)(=O)NCC4CCCO4)c3)c3ccccc23)c1 (centres undefined) -36.5%
COCCCNC(=O)c1cnc2c(-c3ccc(F)cc3)c(C)nn2c1C -0.176%
CCOC(=O)C1CCN(C(c2cccc(F)c2)c2c(O)cc(C)n(Cc3ccco3)c2=O)CC1 (centres undefined) -8.2%
CCN1CC(CCN2CCOCC2)C(c2ccccc2)(c2ccccc2)C1=O (centres undefined) -12.8%
Cn1nc(-c2ccccc2F)c2cc(C(=O)NCCc3ccc(Cl)cc3)sc21 -31.6%
COc1ccc(-c2noc(N(c3cccc(Cl)c3)c3nc(-c4ccc(OC)c(OC)c4)no3)n2)cc1OC -8.58%
CCOc1cccc(C(=O)N2CCC(c3nc4ccccc4s3)CC2)c1 -7.98%
O=C(c1ccc(Br)cc1)N1CCN(CCc2ccncc2)CC1 -22.2%
CCOc1ccc(-c2nc(SCC(=O)c3ccccc3)n[nH]2)cc1 0.0514%
CC(=O)c1ccc(NC(=O)CSc2ccc(-c3cccs3)nn2)cc1 12.9%
CN(C)c1ccc(CNC(=O)c2cnc3sc(N4CCOCC4)nn3c2=O)cc1 -10.5%
